Read counts are not given, so values of variants with three or more changes are uncertain.
B1: LINE1-mini (parent)
chain: GGCAGAGCUCAACACAGCGUGGCAAAGUGGCUGUGGCUAGACUGCC

Variants of: B1
Test: self-cleavage, relative activity (ratio to wild type); higher = more cleavage; in vitro, sequencing; the parent is a self-cleaving ribozyme

| Variant | self-cleavage |
| --- | --- |
| GCCCGAGCUCAACACAGCGUGGCAAAGUGGCUGUGGCUAGGCUGCG [G2C A4C A41G C46G] | 0.02 |
| GACAGAGCUCAACACAGCGUGGCAAAGUGGCUGUGGCUACACUGCA [G2A G40C C46A] | 0.05 |
| GCCGGAGUGCAACACAGCGUGGCAACGUGGAUGUGGCUAGACUGCC [G2C A4G C8U U9G A26C C31A] | 0.03 |
| GACAGAGCGCAACAGAGCGUGGCAAAGUGGCAGUGGCUAGACUGCU [G2A U9G C15G U32A C46U] | 0.04 |
| GACAGAGCCCGACACAGCGUGGCAAAGUGACUGUAGCUAGACUGCC [G2A U9C A11G G30A G35A] | 0.03 |
| GACAGAGCUCAACACAGCGUGGCAAAGUGGCGGUGGCUAGAGUGCC [G2A U32G C42G] | 0.04 |
| GACAGAGCACAACACUGCGUGGCAAAGUGGCUGGGGCUAGACUGCC [G2A U9A A16U U34G] | 0.06 |
| GACAGAGCUCAACACAGCGCGGCAAAGUGGCUAUGGCUAUACUGCC [G2A U20C G33A G40U] | 0.15 |
| GACAGAGCUCAACACAGCGAGGCAAAGUUGCAGUGGCAAGACUGCA [G2A U20A G29U U32A U38A C46A] | 0.1 |
| GACAGAGCUCAACACAGCGCGGCAAAGUGGCUGUGGCUAGAUUGCC [G2A U20C C42U] | 0.11 |
| GACAGAGCUCAACACAGCGAGCAAAAGUGGCUGUGGCUAGACUGCC [G2A U20A G22C C23A] | 0.58 |
| GCCCGACCUCAACACAGUGCGGCAAAGUGGCUGUGGCUAGACUGCC [G2C A4C G7C C18U U20C] | 0.14 |
| GACAGAGCUCAACACAGCGUGGCAAAGUGCCUGUGGCUAGACUGCU [G2A G30C C46U] | 0.25 |
| GCCUGAGCUCAACAGAGCGUGGCAAAGUGGCUGUGGCUAGACUGCC [G2C A4U C15G] | 0.01 |
| GCCCGACCUCAACACAGCGUGGCAUAGUGGCUGUGGUUAGACUGCC [G2C A4C G7C A25U C37U] | 0.12 |
| GACAGAGCUCAACACAGCGUGGCAAAGUGGCAGUUGCUAGACUGCC [G2A U32A G35U] | 0.13 |
| GCCUGAGAUCAACACAGCGUGGCAAAGUGGGUGUGGCUACACUGCC [G2C A4U C8A C31G G40C] | 0.17 |
| GACAGAGCUCAACACAGCGUGGCAAAGUGGCAGUGGUUAGACUGCC [G2A U32A C37U] | 0.1 |
| GCCGGAGCUCAACACGGCGUGGCAAAGUGGCUGUGGCUCUACUGCC [G2C A4G A16G A39C G40U] | 0.06 |

| Variant | self-cleavage |
| --- | --- |
| GACAGAGCCCAACACAGCGUCGCAAAGUGGCUGUGGCUAGACUGCC [G2A U9C G21C] | 0.12 |
| GACAGAGCCCAACACAGCGUGACAAAGUGGCUGUGGCUAGACUGGC [G2A U9C G22A C45G] | 0.06 |
| GACAGAGCUCAACACAGCGUGGCAAAGUGGCUUUGACUAGACUCCC [G2A G33U G36A G44C] | 0.07 |
| GCCUGAGCUCAACACAGUGUGGCAAUGUGGCUGUGGCUAGACUGCC [G2C A4U C18U A26U] | 0.04 |
| GCCUGAGAUCAACACAGCGUGGCAAAGGGGCUGUUGCUAGACUGCC [G2C A4U C8A U28G G35U] | 0.13 |
| GACAGAGCCCAACACCGCGUGGCAAAGUGGCUCUGGCUAGACUGCC [G2A U9C A16C G33C] | 0.03 |
| GACAGAGCACAGCACAGCGUGGCAAAGUGGCUGUGGCUAUACUGCC [G2A U9A A12G G40U] | 0.12 |
| GCCCGAGACCAACACAGCGUGGUAAAGUAGCUGUGGCGAAAAUGCC [G2C A4C C8A U9C C23U G29A U38G G40A C42A] | 0.02 |
| GACAGAGCGCACCACAGCGUGGCAGAGUGGAUGUGGCUAGACUGCC [G2A U9G A12C A25G C31A] | 0 |
| GACAGAGCUCAACACAGCGUGGCAAAGUGGCUCUGGCUAGACUACC [G2A G33C G44A] | 0.12 |
| GACAGAGCGCAACACAGCGUGGCAAAGUGGCUAUGGCUAAACUGCC [G2A U9G G33A G40A] | 0.19 |
| GACAGAGCACAAUACAGCGUGACAAAGUGGCUGUGGCUAGACUGCC [G2A U9A C13U G22A] | 0.24 |
| GCCUGAUUUCAACACAGCGUGGCAACGUGGCUGAGGCUAGACUGCC [G2C A4U G7U C8U A26C U34A] | 0.59 |
| GCCUGAGAUCAACACAGCGUGGCAAACUGGGUGUGGCUAAACUGCC [G2C A4U C8A G27C C31G G40A] | 0.06 |
| GCCCAAGCUGAACACAGCGUGGCAAAGUGGCUGUGGCUAGACUGCC [G2C A4C G5A C10G] | 0.01 |
| GACAGAGCACAACACAGCGUGGCAAAGUGGCUGUGGCUAGACCGCC [G2A U9A U43C] | 0.09 |
| GACAGAGCUCAACACAGCGUGGCAAAGUGCCUGUGACUAGACUGUC [G2A G30C G36A C45U] | 0.17 |
| GACAGAGCUCAACACAGCGCGGCAAAGUCGCAGUGGCUAGACUGCC [G2A U20C G29C U32A] | 0.28 |
| GACAGAGCGUAACACACCGUGGCAAAGUGGCUGUGGCUAGACUGCC [G2A U9G C10U G17C] | 0.1 |

| Variant | self-cleavage |
| --- | --- |
| GACAGAGCUCAACACAGCGUGGCAAAGUGGCUGCGGCAAGACUGCC [G2A U34C U38A] | 0.21 |
| GACAGAGCUCAACACAGCGUGGCAAAGUGGCUGUGGCUAGACCUCC [G2A U43C G44U] | 0.17 |
| GACAGAGCUCAACACAGCGAGGCUAAGAAGCUGUGGCUAGACUGCC [G2A U20A A24U U28A G29A] | 1.77 |
| GACAGAGCCCCACACAGCGUGCGAAAGUGGCUGAUGCUAGACUGCC [G2A U9C A11C G22C C23G U34A G35U] | 0.02 |
| GACAGAGCUCAACACAGCGUGGCAAAGUGGCUGUGACUCGACUGCC [G2A G36A A39C] | 1.29 |
| GACAGAGCGCAACACAGGGUGGCAAAGUGGCUGUGGCUAGACUGUC [G2A U9G C18G C45U] | 0.19 |
| GCCCGAGCUCAACACAGCGUGGCUAAGUGCCUGUGGCUAGACUGCC [G2C A4C A24U G30C] | 0.08 |
| GACAGAGCCCGACACAGCGUGGCAAAGUGGCUGUGGCUAGACUGCC [G2A U9C A11G] | 0.03 |
| GACAGAGCUCAACACAGCGUGGCAAAGUGGCUGUCGCUAGACUGAC [G2A G35C C45A] | 0.1 |
| GCCCGAUCUCAACACAGCGUGGCGAAGUGGCUGUCGCUAGACUGCC [G2C A4C G7U A24G G35C] | 0.13 |
| GCCGGAGCUCAACACAGCGUGGCAAAGUGACUGUGGCUAGAGUGCC [G2C A4G G30A C42G] | 1.22 |
| GACAGAGCUCAACACAGCGUGGCAAAGUGGCUGUGGCUAUACAGCC [G2A G40U U43A] | 0.24 |
| GACAGAGCUCAACACAGCGGCGCAAAGUGGCUGUAGCUAGUCUGCC [G2A U20G G21C G35A A41U] | 0.03 |
| GACAGAGCUCAACACAGCGUGGCAAAGUGGCGGUGGCUAGACUGGG [G2A U32G C45G C46G] | 0.1 |
| GACAGAGCCCAACACAGCGUGGCAAAGUGACUGUGGCUAGACUGCC [G2A U9C G30A] | 0.02 |
| GACAGAGCACAAACCCGCGUGGAAAAGUGGUUGUGGCUAGACUGCC [G2A U9A C13A A14C A16C C23A C31U] | 0.04 |
| GACAGAGCCCUACACAGCGUGGCAAAGUUGCUGUGGCUAGACUGCC [G2A U9C A11U G29U] | 0.01 |
| GACAGAGCCCAACACAGCGUGGUAAAGUGGCUGUGGCUAGACAGCC [G2A U9C C23U U43A] | 0.05 |

— the RNAGym collection of RNA variant scans (doi:10.7554/elife.90254)
